Data on 70 compounds can be found in PubChem BioAssay AID2202238 (Ras Initiative Chemistry Research Team, Frederick National …, 2025).

Among all 2,200 compounds or so, fewer than 10 were called active. This is one part of the list. Where no call is shown, the source marks the result inconclusive.

The test concerns the target GTPase KRas (Homo sapiens) (UniProt P01116). Briefly: Covalent labelling of cysteine mutants by fragments, read by mass spectrometry (AID 2202238). On the set-up: protein at 5 µM with 500 µM competing thiol for 1.5 h. The conditions noted are these: KRAS G12D cysteine mutants, disulfide tethering, MALDI-TOF labeling; stronger effect = higher value; H27C mutant labeling; fragment at 500 µM.
Sequence of UniProt P01116 (P01116 whole entry, looked up, the tested form may be a part): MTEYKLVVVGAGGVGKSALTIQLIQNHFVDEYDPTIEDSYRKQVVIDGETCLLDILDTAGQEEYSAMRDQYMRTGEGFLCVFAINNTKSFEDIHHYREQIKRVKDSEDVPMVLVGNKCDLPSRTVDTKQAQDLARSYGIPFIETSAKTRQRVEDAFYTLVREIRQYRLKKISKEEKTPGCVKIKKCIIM
For the compound `O=C(CCS)NC1CCN(c2ccc(Cl)c(Cl)c2)C1=O` (stereo not given), the percent labeling turned out to be 37.6%.

`O=C(CCS)Nc1nc2ccc3scnc3c2s1` returned a percent labeling of 43.8%.

`CC1Oc2c(cccc2C(=O)NCCS)NC1=O` (stereo not given) yielded a percent labeling of 50.1%.

Take `O=C(NCCS)C1COc2ccc(F)cc2C1` (stereo not given): the percent labeling worked out at 23.1%.

Regarding `O=C(NCCS)c1nnn(-c2cccc(Br)c2)c1C(F)(F)F`, the percent labeling amounted to 7.9%.

`COc1cccc(-c2nc(C(=O)NCCS)c(C)[nH]2)c1` registered a percent labeling of 37.1%.

In turn, `O=C(Cc1cc2[nH]cnc2cc1Br)NCCS` registered a percent labeling of 53%.

`O=C(NCCS)c1coc(C#Cc2ccccc2)c1` yielded a percent labeling of 12.8%.

Consider `Cc1c(C(=O)NCCS)nnn1-c1ccc2c(c1)OCCO2`, for which the percent labeling was 25.9%.

Compound `Cc1nc(C(=O)NCCS)nn1-c1ccc(Cl)cc1` displayed a percent labeling of 33.4%.

For the compound `Cc1ccc(N2CCCC2)cc1NC(=O)CCS`, the percent labeling turned out to be 21.3%.

With `Cc1cc(C)nc(-n2[nH]c(C(=O)NCCS)c(CCO)c2=O)n1`, the percent labeling came out at 8.7%.

For `Cn1c(=O)n(C)c2cc(C(=O)NCCS)c(Br)cc21`, the percent labeling was 39.9%.

For the compound `CN(C)C(C(=O)NCCS)c1cc(Br)cs1` (stereo not given), the percent labeling amounted to 40.5%.

The compound `Cc1nn(C2CCS(=O)(=O)C2)c(C)c1NC(=O)CCS` (stereo not given) yielded a percent labeling of 44.5%.

`O=C(NCCS)c1cccc(Oc2ccc(Cl)cc2)c1` came in with a percent labeling of 24.3%.

Take `CC(C)C1N(C(=O)CCS)CC12CCS(=O)(=O)CC2` (stereo not given): the percent labeling turned out to be 44.7%.

For `Cc1c(C(=O)NCCS)sc2ncn(C)c(=O)c12`, the percent labeling is 56.9%.

The compound `O=C(NCCS)c1c(C(F)(F)F)nc2ccccn12` registered a percent labeling of 40.8%.

In turn, `O=C(CCS)Nc1ccc(-c2nnc3n2CCC3)cc1` came in with a percent labeling of 44.2%.

In turn, `CCC(C)c1ccccc1N1CC(C(=O)NCCS)CC1=O` (stereo not given) yielded a percent labeling of 46.2%.

For `Cc1ccc(C)c(C(C(=O)NCCS)C(C)C)c1` (stereo not given), the percent labeling amounted to 21.1%.

In turn, `CCN(Cc1c(CO)cnc(C)c1O)C(=O)CCS` yielded a percent labeling of 37.5%.

As to `O=C(CN1C(=O)NC2(CCCc3ccccc32)C1=O)NCCS` (stereo not given), the percent labeling turned out to be 28.5%.

For `CN(Cc1ncc(Cl)n1C)C(=O)CCS`, the percent labeling stood at 34.7%.

In turn, `O=C(CCS)N1CCc2nc(C3CCCCC3)[nH]c2C1` returned a percent labeling of 37.3%.

In the case of `O=C(CCS)N1CCC(c2csc(-c3ccc(Cl)cc3)n2)CC1`, the percent labeling came out at 28.8%.

In turn, `O=C(CCC(=O)N1CCc2sccc2C1)NCCS` showed a percent labeling of 22.9%.

Consider `O=C(NCCS)C1CCN(CC(F)(F)F)C1` (stereo not given), for which the percent labeling turned out to be 27.1%.

Consider `N#Cc1ccccc1Oc1ccc(C(=O)NCCS)cc1Cl`, for which the percent labeling turned out to be 37.8%.

Regarding `O=C(CCS)Nc1nn(Cc2ccc(F)cc2)cc1Cl`, the percent labeling was 36.5%.

Turning to `CCC(C)(NC(=O)CCS)c1nc2c(c(=O)[nH]1)CCCC2` (stereo not given), the percent labeling came to 35.5%.

Take `O=C(CCS)N1CCC(c2nc(-c3ccccc3)no2)CC1`: the percent labeling stood at 37.9%.

Consider `O=C(CCc1ccc2c(c1)NC(=O)CO2)NCCS`, for which the percent labeling amounted to 42.4%.

As to `O=C(CCS)N1CCn2c(cc3ccccc32)C1`, the percent labeling was 6.6%.

The compound `Cn1cc(C2CN(C(=O)CCS)CCO2)cn1` (stereo not given) showed a percent labeling of 36.5%.

`CC(CC(N)=O)c1ccc(NC(=O)CCS)cc1` (stereo not given) returned a percent labeling of 33.8%.

In the case of `O=C(NCCS)C1(C(F)(F)F)CC=CCO1` (stereo not given), the percent labeling worked out at 28.7%.

In the case of `O=C(CCS)Nc1cc2ccccc2nc1Cl`, the percent labeling came out at 25.1%.

`O=C(NCCS)c1cc2c(=O)[nH]c3ccccc3c2s1`: the percent labeling is 38.8%.

The compound `O=C(CCS)NCCn1ccc(=O)[nH]c1=O` displayed a percent labeling of 37.8%.

In the case of `O=C(CCS)NCc1ccc(Oc2cccnc2)c(F)c1`, the percent labeling turned out to be 52.7%.

Regarding `CCn1c(=O)[nH]c2cc(C(=O)NCCS)ccc2c1=O`, the percent labeling turned out to be 28.9%.

`Cc1c(C(=O)NCCS)nnn1-c1cccc2c1CCN(C)C2`: the percent labeling is 53.6%.

In the case of `O=C(CCS)Nc1c(F)cccc1-n1cccn1`, the percent labeling amounted to 31.2%.

For `CC1(C)CCCN1C1CCN(C(=O)CCS)CC1`, the percent labeling was determined as 40.4%.

In turn, `Cc1oc(-c2cccs2)nc1C(=O)NCCS` had a percent labeling of 26.1%.

On to `O=C(CCS)N1CCC(Oc2cncc(Cl)c2)CC1`, for which the percent labeling stood at 51.9%.

Take `O=C(CCN1C(=O)CCc2cc(F)ccc21)NCCS`: the percent labeling came out at 29.2%.

In turn, `Cc1ccc(OCc2cccc(C(=O)NCCS)c2)cn1` came in with a percent labeling of 34.8%.

As for `Cn1cc(N2CCCC(N3CCN(C(=O)CCS)CC3)C2=O)cn1` (stereo not given), the percent labeling stood at 35.2%.

As to `CN1CCC(c2cccc(NC(=O)CCS)c2)CC1`, the percent labeling was determined as 63.4%.

In turn, `CC(C(=O)N(C)CC(=O)NCCS)n1cccn1` (stereo not given) showed a percent labeling of 27.3%.

In the case of `CCNC(=O)c1cccc(NC(=O)CCS)c1`, the percent labeling turned out to be 40.1%.

Consider `O=C(NCCS)C1(O)CCC(C(F)(F)F)CC1` (stereo not given), for which the percent labeling came to 35.4%.

Consider `O=C(CCS)Nc1ccc2c(c1)CCC(=O)N2`, for which the percent labeling was 47.6%.

As to `O=C(CCS)Nc1cccc(Oc2ccccc2)c1`, the percent labeling came out at 28.7%.

For `O=C(CCS)NCCCC(=O)Nc1cn[nH]c1`, the percent labeling was 32.4%.

`CC(C)(C(=O)NCCS)c1ccc(C(F)(F)F)cc1` came in with a percent labeling of 26.7%.

As to `O=C(CCS)Nc1ccc(F)cc1Cn1ccsc1=O`, the percent labeling amounted to 47%.

`Cc1nn(-c2ccccc2)c(C)c1C(=O)NCCS` had a percent labeling of 44.6%.

On to `O=C(Nc1sccc1C(=O)NCCS)c1ccc2c(c1)CCC2`, for which the percent labeling came out at 10.8%.

In the case of `O=C(CCS)NC1(c2ccc(Br)cc2)COC1`, the percent labeling stood at 40.7%.

Compound `COc1cccc(-c2cc(CN(C)C(=O)CCS)[nH]n2)c1` returned a percent labeling of 42.2%.

Consider `O=C(NCCS)c1ccc2c(c1)[nH]c(=O)n2CC(F)(F)F`, for which the percent labeling worked out at 49.4%.

Take `Cc1nc(-c2cccnc2)[nH]c(=O)c1CC(=O)NCCS`: the percent labeling was 40.5%.

Compound `O=C(CCS)Nc1ccc2c(c1)C(=O)NCC2` showed a percent labeling of 47.5%.

The compound `Cc1nc2cc(=O)[nH]n2c(C)c1CNC(=O)CCS` displayed a percent labeling of 27.3%.

`O=C(CCS)NC1CCC(O)(C(F)(F)F)CC1` (stereo not given) had a percent labeling of 31.2%.

`O=C(CC1(C(=O)NCCS)CCCC1)N1CCOCC1` came in with a percent labeling of 29.1%.
